Source: the supplement of paper PMC7125110
± gives the standard error. Variants at the background level are over-represented here.

B1: glmS ribozyme (parent)
chain: AUAAAAGCGCCAGAACUACAGAAAUGUAGUUGACGAGGAGGAGGUUUAUCGAAUUUUCGGCGGAUGCCUCCAAA

Key:
Settings in all cases: with glucosamine-6-phosphate
glucosamine-6-phosphate [1] = variants of: B1; assay: self-cleavage kobs at 160 uM GlcN6P; higher = faster cleavage; RNA array
How it was run: (§1)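 On sequenced MiSeq chips, barcoded ribozyme variants were made in situ by E. coli RNA polymerase and followed at 37 °C through a hybridised Cy3 probe. Glucosamine-6-phosphate was flowed in at 40 μM to 10 mM in HEPES/KCl/Mg(OAc)2 buffer. Exponential fits to normalised per-tile medians gave kobs, and weighted Michaelis–Menten fits gave kcat and KM.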

glucosamine-6-phosphate [2] = variants of: B1; assay: self-cleavage kobs at 2500 uM GlcN6P; higher = faster cleavage; RNA array
How it was run: as §1

glucosamine-6-phosphate [3] = variants of: B1; assay: self-cleavage kobs at 10000 uM GlcN6P; higher = faster cleavage; RNA array
How it was run: as §1

Variant	self-cleavage kobs at 160 uM GlcN6P (glucosamine-6-phosphate [1])	self-cleavage kobs at 2500 uM GlcN6P (glucosamine-6-phosphate [2])	self-cleavage kobs at 10000 uM GlcN6P (glucosamine-6-phosphate [3])
A6U C61U A64G	< 1e-05 s⁻¹	–	–
A6U G35U A53C	< 1e-05 s⁻¹	< 1e-05 s⁻¹	–
A6U G40U C61A	< 1e-05 s⁻¹	< 1e-05 s⁻¹	–
G7A U31G A33U C68G	< 1e-05 s⁻¹	< 1e-05 s⁻¹	–
G7C A12G A33U G51U	< 1e-05 s⁻¹	–	–
G7C A12U	< 1e-05 s⁻¹	–	< 1e-05 s⁻¹
G7C A33C G59A	< 1e-05 s⁻¹	–	–
G7C G13U A42G	< 1e-05 s⁻¹	–	< 1e-05 s⁻¹
G7C G35A A64G	< 1e-05 s⁻¹	< 1e-05 s⁻¹	–
G7C G41A C61A	< 1e-05 s⁻¹	–	–
G7U A14C G59U C71U	< 1e-05 s⁻¹	–	–
C8A A15U U47C U55A G63C U65G	< 1e-05 s⁻¹	–	–
C8A A33U C70U	< 1e-05 s⁻¹	< 1e-05 s⁻¹	–
C8A C16A G40C U65G	< 1e-05 s⁻¹	< 1e-05 s⁻¹	–
C8A G9A C16G U31C C61G C68U	< 1e-05 s⁻¹	< 1e-05 s⁻¹	–
C8A G13C U30C G41U	< 1e-05 s⁻¹	< 1e-05 s⁻¹	< 1e-05 s⁻¹
C8A U49G G63U	< 1e-05 s⁻¹	< 1e-05 s⁻¹	–
C8G A12G G59U C70U	< 1e-05 s⁻¹	–	–
C8G G9C A36G	< 1e-05 s⁻¹	< 1e-05 s⁻¹	< 1e-05 s⁻¹
C8G G59A C71G	< 1e-05 s⁻¹	–	–
C8G G62C	< 1e-05 s⁻¹	–	3.7e-05 ± 8.1e-06 s⁻¹
C8G U46C A53C	< 1e-05 s⁻¹	< 1e-05 s⁻¹	–
C8U G13U U46A	< 1e-05 s⁻¹	< 1e-05 s⁻¹	–
G9A A52C U57C	< 1e-05 s⁻¹	–	–

Variant	self-cleavage kobs at 160 uM GlcN6P (glucosamine-6-phosphate [1])	self-cleavage kobs at 2500 uM GlcN6P (glucosamine-6-phosphate [2])	self-cleavage kobs at 10000 uM GlcN6P (glucosamine-6-phosphate [3])
G9A G32A C34G C58U	< 1e-05 s⁻¹	< 1e-05 s⁻¹	–
G9A U27C	< 1e-05 s⁻¹	–	–
G9C A33G A42U	< 1e-05 s⁻¹	< 1e-05 s⁻¹	–
G9C C11A G37C U54A C70G	< 1e-05 s⁻¹	< 1e-05 s⁻¹	–
G9C U69A C70U	< 1e-05 s⁻¹	< 1e-05 s⁻¹	–
G9U A36U U45C U49C	< 1e-05 s⁻¹	< 1e-05 s⁻¹	–
G9U A53G	< 1e-05 s⁻¹	< 1e-05 s⁻¹	–
G9U G32C C71A	< 1e-05 s⁻¹	–	–
G9U G32C G51C C58U	< 1e-05 s⁻¹	< 1e-05 s⁻¹	–
C10A A14G	< 1e-05 s⁻¹	–	3.58e-05 ± 1.1e-05 s⁻¹
C10A A52U C68A	7.21e-05 ± 2.5e-05 s⁻¹	–	–
C10A C16U G60U C61A	< 1e-05 s⁻¹	< 1e-05 s⁻¹	–
C10A G35U U56C	< 1e-05 s⁻¹	< 1e-05 s⁻¹	–
C10G A12C	< 1e-05 s⁻¹	–	2.24e-05 ± 9.4e-06 s⁻¹
C10G G43U U46G C50U A52G	< 1e-05 s⁻¹	–	–
C10G G62C A64G C70G	< 1e-05 s⁻¹	< 1e-05 s⁻¹	–
C10U C71A	< 1e-05 s⁻¹	–	–
C10U G35U G59U C71G	< 1e-05 s⁻¹	–	–
C10U U31A	< 1e-05 s⁻¹	–	–
C10U U49G U56A	< 1e-05 s⁻¹	–	–
C11A A39C U49C	< 1e-05 s⁻¹	< 1e-05 s⁻¹	–
C11G A14U G29C C61G	< 1e-05 s⁻¹	–	–
C11G C16U C58G	< 1e-05 s⁻¹	–	–
C11G G37C G40A U45A C70U	< 1e-05 s⁻¹	–	–

Variant	self-cleavage kobs at 160 uM GlcN6P (glucosamine-6-phosphate [1])	self-cleavage kobs at 2500 uM GlcN6P (glucosamine-6-phosphate [2])	self-cleavage kobs at 10000 uM GlcN6P (glucosamine-6-phosphate [3])
C11G U31C G41C C70U	< 1e-05 s⁻¹	–	–
C11G U47G	< 1e-05 s⁻¹	< 1e-05 s⁻¹	< 1e-05 s⁻¹
C11U A33C	< 1e-05 s⁻¹	–	–
C11U G32C A42G G59U	< 1e-05 s⁻¹	< 1e-05 s⁻¹	–
A12G G32A A36G	< 1e-05 s⁻¹	–	–
A12G G32C G35C A39C G51U C71A	< 1e-05 s⁻¹	–	–
A12G G38U	< 1e-05 s⁻¹	–	< 1e-05 s⁻¹
A12G G62A C67U	< 1e-05 s⁻¹	–	–
A12U G13U A36G A39C G51C C67A C71U	< 1e-05 s⁻¹	< 1e-05 s⁻¹	–
G13A G43A U46G	< 1e-05 s⁻¹	< 1e-05 s⁻¹	< 1e-05 s⁻¹
G13A G44U U47C	< 1e-05 s⁻¹	< 1e-05 s⁻¹	–
G13C A15U G51U C67U C68G	6.58e-05 ± 2.5e-05 s⁻¹	–	–
G13C A64U	< 1e-05 s⁻¹	< 1e-05 s⁻¹	< 1e-05 s⁻¹
G13C G35A A39U	< 1e-05 s⁻¹	–	–
G13U G44U U54C	< 1e-05 s⁻¹	–	–
A14C A36C A39U U49A C67U	< 1e-05 s⁻¹	–	–
A14C G41C C68U	< 1e-05 s⁻¹	< 1e-05 s⁻¹	–
A14U C16G A33G G37A	< 1e-05 s⁻¹	–	–
A15G C34U G63A	< 1e-05 s⁻¹	–	–
A15G U46A A64C	< 1e-05 s⁻¹	–	–
A15U C16A U49C C61G	< 1e-05 s⁻¹	–	–
C16A G32U C68U C71A	< 1e-05 s⁻¹	< 1e-05 s⁻¹	–
C16G U31C G35U A64C	< 1e-05 s⁻¹	< 1e-05 s⁻¹	–
